In publication PMC10668032:
The other results are listed elsewhere or left out. At the low end of the ranking the order means little.

Molecular target: SIX1-Q177R homeodomain (UniProt Q15475)
Experiment: universal protein binding microarray
Details: Universal all-10-mer PBM (8x60K, AMADID 030236), 300 nM GST-tagged protein, Alexa Fluor 488 anti-GST; buffer, salt, pH and temperature not stated; high values mean tight binding; most listed sequences are background and not binding sites; double strand, one strand shown

Row | Sequence | binding signal [E-score]
1 | CGTCGCTC | -0.11
2 | ATGACCGA | -0.125
3 | AAGTATGG | 0.0111
4 | GAACTTCC | -0.352
5 | CCTACCTA | 0.0692
6 | TACAGAGA | -0.277
7 | CAGGGTCA | 0.0436
8 | TCCACTAA | 0.127
9 | ACCTCGCA | -0.0564
10 | CAATGAGG | -0.144
11 | CGGGTATC | 0.374
12 | CGCTGTAG | -0.0217
13 | AATGGCAA | -0.306
14 | CGTCCAAA | -0.179
15 | CTAAAGCC | -0.22
16 | GTGGCTCA | -0.194
17 | CTTGAATA | -0.108
18 | CAGTGAAA | -0.152
19 | ATCTCTCG | 0.0732
20 | AGGGAATA | -0.319
21 | CACTCATC | -0.0811
22 | CGTTTTAG | -0.199
23 | ATGTGGGG | 0.0394
24 | CTCAGTGA | -0.104
25 | GATGATAA | -0.0972

Row | Sequence | binding signal [E-score]
26 | GTTAAGAA | 0.047
27 | ACGTACCG | -0.0746
28 | AGTCGGCG | 0.0331
29 | CTGTCTCC | -0.2
30 | CAACCAAA | -0.0632
31 | AACCGTCT | -0.135
32 | CGAACTTC | -0.321
33 | ACCTTTTA | -0.0514
34 | AAAGGCCC | -0.299
35 | AGAACGTC | -0.185
36 | GTGTATTA | 0.401
37 | AGTCCTGA | -0.0259
38 | GCTGCTAC | -0.0755
39 | CGGTCAGC | -0.0314
40 | AGTGGGAG | -0.00769
41 | GCTGGAAA | 0.0196
42 | ATGGCTGG | -0.103
43 | AGAGTGAT | -0.0616
44 | CATTATAC | 0.0866
45 | AGACACCC | 0.469
46 | CCCAACCG | -0.145
47 | CCCACTGC | -0.0586
48 | CCCCGCCC | 0.223
49 | ATATTCAC | -0.0871
50 | CAGAGCCC | -0.221

Row | Sequence | binding signal [E-score]
51 | CCGTGCGC | 0.0832
52 | GCGCATCA | -0.15
53 | AGCTTTGG | -0.177
54 | CGCGTCTA | -0.0609
55 | GGAGTGAA | 0.124
56 | TCCTGGAA | -0.108
57 | TAGCGCGA | 0.16
58 | CCAGTTTC | -0.161
59 | CATCTTAG | -0.0978
60 | ATCCGATC | 0.213
61 | CCCCACAC | 0.266
62 | ATTGGTTA | -0.18
63 | CCCACCTC | 0.126
64 | AGATACAT | -0.00932
65 | CCAACTAC | 0.151
66 | GGGTCAGA | 0.196
67 | AATCGTAA | -0.16
68 | TGAGATAA | -0.124
69 | CACCGACA | 0.374
70 | CGACTTAA | -0.137
71 | ACCTCTCA | 0.0543
72 | AGCATAAG | -0.219
73 | AGTGAACA | 0.102
74 | AAAATGCT | -0.158
75 | CGCCATGC | -0.19

Row | Sequence | binding signal [E-score]
76 | CCGTCTGA | 0.0396
77 | GGCGTTCA | 0.0504
78 | AGCACGGG | 0.155
79 | CCGAATCC | 0.00344
80 | ATACGTGC | 0.112
81 | ACCCGCGA | 0.239
82 | CCGGCTTC | -0.0559
83 | CACCCGCC | 0.339
84 | ACATAGCG | -0.167
85 | ATCGAACG | -0.042
86 | GATGTTAC | -0.0259
87 | AACACAGC | 0.0116
88 | AGAGGTCA | -0.2
89 | CACCTATA | 0.301
90 | CGATCCTC | 0.132
91 | CGTGTATC | 0.39
92 | GACGAGGC | -0.011
93 | CACCAACC | 0.217
94 | TAACGACA | 0.122
95 | AGAAGACT | -0.216
96 | TATAGGAA | -0.0204
97 | AGTGTCAT | 0.462
98 | AGTATGAT | 0.0566
99 | AACTCGTG | 0.082
100 | CCCCATAA | 0.127

Row | Sequence | binding signal [E-score]
101 | ATTACAAG | -0.0386
102 | AGGCTTCG | -0.199
103 | TCATGCAA | -0.0432
104 | CTTCTGTC | -0.239
105 | GATATAGA | -0.193
106 | GGTTCCAC | -0.0424
107 | AAGAGTCC | -0.159
108 | CTCTTCTA | 0.0592
109 | AAGCAGCT | -0.199
110 | AAGACCTG | -0.086
111 | GTACCACA | -0.0682
112 | ATTGGGTA | 0.00049
113 | CCGTGAAA | -0.104
114 | GCCCGACA | 0.102
115 | ACCGAAGC | 0.031
116 | ACCTAAGG | 0.0521
117 | GACCGCCA | -0.121
118 | ATAGTAGC | 0.0458
119 | ATTCCGAG | -0.0776
120 | AATGGAGT | 0.164
121 | ACAAATTC | 0.00838
122 | AGAAGACG | -0.174
123 | GAATGGGC | -0.11
124 | CATTGTCA | -0.0285
125 | ACTGTTTC | -0.0755

Row | Sequence | binding signal [E-score]
126 | CTCACTGA | -0.105
127 | CTCATAGA | -0.191
128 | CTAGAAAA | -0.279
129 | CTGCGGTA | 0.0698
130 | TACATACA | 0.125
131 | CCAAAATA | -0.00549
132 | ATGAACAT | -0.325
133 | ACCTATGA | -0.0518
134 | ATCTGGTG | 0.292
135 | AGCATGTA | -0.207
136 | AGAACTTG | -0.299
137 | GACACGAA | 0.331
138 | GGCATCAC | -0.057
139 | AAAGACAA | -0.273
140 | GCATGCTA | -0.134
141 | ACTAGTGC | -0.178
142 | CACTGGTC | 0.0705
143 | GTCTATAA | 0.113
144 | CTGCCCGA | 0.139
145 | CAGGCAAA | -0.164
146 | CGTCAGGA | 0.0933
147 | CAGTTCCG | -0.187
148 | AACGCATA | 0.0663
149 | AGATGTAG | -0.0696
150 | CATCGTGA | -0.122

Row | Sequence | binding signal [E-score]
151 | AAGCGCTC | -0.06
152 | ACCCCGCG | 0.254
153 | CTAGATTA | -0.115
154 | CCTGGATA | -0.056
155 | GTGTCTGA | 0.364
156 | GGGTACTA | 0.224
157 | CGAGGTGC | 0.127
158 | TAAGACGA | -0.198
159 | AATAACCA | -0.273
160 | AACTTGTG | 0.0347
161 | AAATGTCG | -0.184
162 | GACCAGAC | -0.195
163 | TTGGAAAA | -0.0791
164 | AGCTGTAA | -0.295
165 | ACTCCCCC | 0.21
166 | GACGGCAC | -0.135
167 | CTCTGAAA | -0.0336
168 | AATGAATT | 0.0485
169 | CGGCACAG | -0.172
170 | ACGAACGG | -0.0186
171 | GATCGCTA | -0.0743
172 | GCTAAGGA | -0.164
